Reference: PubChem BioAssay AID2546 (National Center for Advancing Translational Sciences (NCATS), 2010)
In all, about 310,000 compounds went through this assay and about 11,000 (3.5%) were called active. The inconclusive results got no clear call from the source; some entries with a clear call stand among them for comparison. Calls come from the whole dose curve; as a rule, active = well fitted inhibition curve with a large enough effect; inconclusive = small, poorly fitted or top-dose-only effect, or effect the other way; inactive = flat fitted curve, though single readings scatter. No potency is given beside an inconclusive call; the fits are too rough.

Test: VP16 counterscreen qHTS for inhibitors of ROR gamma transcriptional activity;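 note: Gal4-VP16 expression switched on by copper sulfate through the metallothionein promoter; nearly all actives have a fitted effect of over 50% in size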
Details: Drosophila S2 Gal4-VP16 UAS-luciferase, luminescence, 20 h; activity, negative = inhibition: at 53.6 µM (top of the series)
% is set by controls: 0 for no effect and ±100 for the full control effect; potency is the fitted concentration of half-maximal effect; tags give direction and shape of the fitted curve.

Compound	Potency	activity, negative = inhibition
S=c1[nH]nc(-c2ccc(Cl)cc2)n1-c1ccc(Cl)cc1	active: 7.08 µM	–
Cc1nn(S(=O)(=O)c2ccccc2)c(C)c1Sc1ccc([N+](=O)[O-])cc1	inconclusive [inhibitor, single point]	–
COc1ccc(OCC(=O)Nn2c(-c3ccc(OC)cc3)nc3ccccc3c2=O)cc1	active: 10 µM	–
O=c1c2ccccc2nc2c3ccccc3c(NCCO)nn12	–	inactive: 1.56%
O=C(Nc1ccccc1NC(=O)c1c(F)cccc1F)c1c(F)cccc1F	–	inactive: -3.12%
CCOC(=O)C1CCCN(C(=O)c2sc3nc(C)nc(N(CC)CC)c3c2C)C1 (centres undefined)	–	inactive: 13.6%
COc1ccc(CCNC(=O)COc2ccc(-c3ccccc3)cc2)cc1OC	inconclusive [inhibitor, single point]	–
Nn1c(C2CCCCC2)nc2ccccc2c1=O	–	inactive: -2.99%
O=C(/C=C/Nc1ccc(F)cc1)c1ccco1	inconclusive [inhibitor, single point]	–
C=CCn1c(SCc2ccc(C(=O)Nc3ccccc3)cc2)nnc1-c1ccccc1	–	inactive: -0.786%
Cc1nnc(SCC(=O)Nc2cccc(S(N)(=O)=O)c2)n1-c1ccccc1	–	inactive: -9.1%
CC(=O)NC(=C(Cl)Cl)S(=O)(=O)c1ccccc1	inconclusive [inhibitor, single point]	–
CCOc1ccc(CC(=O)N2N=C(C)CC2(O)C(F)(F)F)cc1 (centres undefined)	active: 5.01 µM	–
CCOC(=O)c1cnc2cc(F)c(F)cc2c1N1CCN(C)CC1	–	inactive: -1.64%
CCOc1ccc(CCNC(=O)c2ccc3nc(N4CCOCC4)sc3c2)cc1OCC	–	inactive: 16.2%
O=C(Nc1cccc(-c2ccc3nncn3n2)c1)C(F)(F)F	inconclusive [inhibitor, full curve]	–
COc1ccc(Cc2nnc(SCC(=O)Nc3nc(C)cs3)o2)cc1	–	inactive: -3.55%
NC(=S)n1[nH]c(-c2ccc([N+](=O)[O-])cc2)c(N=Nc2ccc(Cl)cc2)c1=O	inconclusive [inhibitor, full curve]	–
O=C(c1ccc(Cl)cc1)c1ccc(OCC(O)CN2CCOCC2)cc1 (centres undefined)	inconclusive [inhibitor, single point]	–
Cc1c(CCC(=O)NCCC(=O)O)c(=O)oc2c(C)c3oc4c(c3cc12)CCCC4	–	inactive: -21.1%
Cn1c(=O)c(C(=O)NC2CCCCCCC2)c(O)c2ccccc21	inconclusive [inhibitor, single point]	–
COc1cccc(C(C[N+](=O)[O-])c2c(C)[nH]n(-c3ccccc3)c2=O)c1 (centres undefined)	active: 7.94 µM	–
Cc1cc(C)cc(N(C(=O)CNS(=O)(=O)c2ccccc2)C(C(=O)NCc2ccccc2)c2ccc(C)o2)c1 (centres undefined)	inconclusive [inhibitor, single point]	–
O=C(Nc1ccc(Cl)c(S(=O)(=O)N2CCOCC2)c1)c1ccc(OCC2CCCO2)cc1 (centres undefined)	inconclusive [inhibitor, single point]	–
CC(C)(C)c1ccc(OCC(O)CSc2ncn[nH]2)cc1 (centres undefined)	active: 5.62 µM	–

Compound	Potency	activity, negative = inhibition
NNC(=O)/C(=C\c1cccs1)NC(=O)c1ccccc1	inconclusive [inhibitor, single point]	–
Cc1ccccc1S(=O)(=O)Cc1ccc(C(=O)NCc2ccccc2)o1	inconclusive [inhibitor, full curve]	–
C[C@H](NC(=O)c1nc[nH]c1C(=O)NCC(=O)OCc1ccccc1)C(=O)OC(C)(C)C	inconclusive [inhibitor, single point]	–
COc1ccc2c(c1OC)C(=O)c1ccccc1C2=O	inconclusive [inhibitor, full curve]	–
CNC(=O)COC(=O)c1cc2c(s1)CCCC2	inconclusive [activator, single point]	–
Cc1cc([N+](=O)[O-])nn1CC(=O)N/N=C/c1ccccc1Br	–	inactive: 7.6%
Cn1cc(Br)c(C(=O)N2CCN(c3cccc(Cl)c3)CC2)n1	inconclusive [inhibitor, single point]	–
COC(=O)CNC(=O)CCCCC(=O)NCC(=O)OC	–	inactive: 2.41%
CC(C)CC(=O)O/N=C1\C(=O)N(Cc2ccc(Cl)cc2)c2ccc([N+](=O)[O-])cc21	inconclusive [inhibitor, single point]	–
CNC(=O)CSc1nc(-c2ccccc2)c(-c2ccccc2)o1	–	inactive: -0.02%
COc1ccc2sc(NC(=O)c3ccco3)nc2c1	inconclusive [inhibitor, partial curve, poor fit]	–
Cc1ccc(C)c(N2CCN(C(=O)c3ccc4c(c3)c(C)c(C)n4C)CC2)c1	–	inactive: -29.3%
CCCCCC(=O)NC(=S)Nc1ccc(N2CCCCC2)c(Cl)c1	active: 7.08 µM	–
Cc1ccccc1NC(=S)NCCC(c1ccccc1)c1ccccc1	active: 12.6 µM	–
S=C(Nc1ccc(Cl)cc1)c1nc2ccccc2[nH]1	active: 20 µM	–
O=C(/C=C/c1ccc(Cl)cc1)NC(=S)NN1CCCCC1c1cccnc1 (centres undefined)	inconclusive [inhibitor, single point]	–
CCc1ccccc1NC(=O)Nc1cc(F)ccc1F	inconclusive [inhibitor, single point]	–
O=C(NC1CCCCC1)c1cc(-c2cccs2)on1	inconclusive [inhibitor, single point]	–
COc1ccc(C(=O)Nn2c(SCC(=O)NC3CCCC3)nc3ccccc3c2=O)cc1	inconclusive [inhibitor, single point]	–
COCCn1c(SCC(=O)Nc2sccc2C(N)=O)nc2cc(Cl)ccc2c1=O	inconclusive [inhibitor, single point]	–
COc1ccc(N2CCN(C(=O)c3ccc(F)cc3)CC2)c([N+](=O)[O-])c1	inconclusive [inhibitor, single point]	–
CC(C)c1ccc(NC(=O)c2cc(S(=O)(=O)N3CCCCC3)c[nH]2)cc1	–	inactive: 2.26%
Cc1cc(C)cc(N(CCC(=O)Nc2nnc(C3CC3)s2)S(=O)(=O)c2ccc(Cl)cc2)c1	inconclusive [inhibitor, partial curve, poor fit]	–
Cc1cc(C)cc(Oc2nc(-c3ccccc3)cc(C)c2S(C)(=O)=O)c1	–	inactive: 8.81%
CCCOc1ccc(C(=O)Nc2ccc(N3CCN(C(=O)c4ccco4)CC3)cc2)cc1	inconclusive [inhibitor, single point]	–

Compound	Potency	activity, negative = inhibition
O=C(CSc1nnc(CNC(=O)c2ccco2)o1)c1ccccc1	inconclusive [inhibitor, single point]	–
COCCN(CCOC)S(=O)(=O)c1ccc(C(=O)Nc2sc3c(c2C(N)=O)CCCCC3)cc1	inconclusive [activator, full curve]	–
COc1ccc(C(C#N)=C2C=CC(=NO)C=C2)cc1	inconclusive [inhibitor, partial curve]	–
COc1ccc(C(=O)/C=C/C(=O)N(CC(=O)NC2CCCCC2)Cc2ccccc2OC)c(O)c1	inconclusive [inhibitor, single point]	–
CC(C)CCN1C(=O)c2ccc(C(=O)Nc3ccccc3C(=O)O)cc2C1=O	–	inactive: 18.7%
CSc1ccc(S(=O)(=O)NCc2ccc(C)cc2)cc1	–	inactive: 1.07%
Cc1ccccc1NCC(=O)N/N=C\C=C\c1cccc([N+](=O)[O-])c1	inconclusive [inhibitor, single point]	–
S=C(Nc1ccc(Oc2ccc(NC(=S)NC3CCCCC3)cc2)cc1)NC1CCCCC1	inconclusive [inhibitor, partial curve, poor fit]	–
O=C(N/N=C/c1cccc(OC2CSC2)c1)c1ccccc1O	–	inactive: 0%
CC(CCc1ccccc1)NC(=O)COC(=O)c1cc(NS(=O)(=O)c2ccc(Cl)c([N+](=O)[O-])c2)ccc1O (centres undefined)	inconclusive [inhibitor, single point]	–
CCc1ccc(OC(C)c2nnc(SCC(=O)Nc3ncccc3C)n2C)cc1 (centres undefined)	inconclusive [activator, single point]	–
CCCn1c(=O)c(C(=O)NCc2ccccc2Cl)c(O)c2ccccc21	inconclusive [inhibitor, single point]	–
Cc1cc(C)nc(SCC(=O)Nc2ncc(Cc3cccc(Cl)c3)s2)n1	inconclusive [inhibitor, single point]	–
CCN(CC)S(=O)(=O)c1cc(NC(=O)Cn2ncc(Cl)c(Cl)c2=O)ccc1C	inconclusive [inhibitor, single point]	–
Cn1c(-c2ccc(-c3ccccc3)cc2)c[nH]c1=S	active: 2.24 µM	–
COc1ccc(NC(=O)CCCn2cnc3ccccc3c2=O)c(OC)c1	–	inactive: -0.663%
C=C(C)C1(O)OC(=O)C=C1OC (centres undefined)	active: 11.2 µM	–
CCc1n[nH]c(=S)n1/N=C/c1c(O)ccc2ccccc12	active: 20 µM	–
Cc1cc(Nc2ccc(F)cc2Cl)n2ncnc2n1	inconclusive [inhibitor, single point]	–
Cc1onc(-c2ccccc2)c1C1=N/C(=C\c2ccccc2F)C(=O)O1	–	inactive: 6.21%
CC(C)COc1cccc(-c2cc(C(=O)Nc3ccon3)c3ccccc3n2)c1	active: 28.2 µM	–
CCOC(=O)C1CCCN(C(=O)CCNS(=O)(=O)c2cc(Br)cnc2N)C1 (centres undefined)	–	inactive: 1.71%
CCNC(=S)Nc1ccc(Cl)c(C(F)(F)F)c1	inconclusive [inhibitor, single point]	–
COC(=O)C1=C(C(=O)OC)C2(OC1c1cccc(F)c1)C(=O)c1ccccc1C2=O (centres undefined)	–	inactive: 12.8%
